The supplement of paper PMC9135407
Several values for one entry are separate records, joined by “and”; a condition that tells them apart may be missing. Equal values may be shown once. Where a name gives a salt, the structure may show the parent alone. About 620 (11%) of roughly 5,800 compounds showed activity.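 Rule for the calls: active = score above a cut-off or among the top three wells of a plate; in these data no inactive exceeds 0.85.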 This is a selection; strong and weak results do not stand in their true shares.

Test system: primary human hepatic stellate cells (donor 1)
Assay: scaled lipid accumulation score (0 = DMSO-like, 1 = nortriptyline-like); higher = stronger HSC inactivation (lipid re-accumulation), active = hit call of the paper
Details: 48 h
[1] = library stock concentration: 2 mM
[2] = library stock concentration: 10 mM
[3] = library stock concentration: 3.33 mM
[4] = library stock concentration: 1 mM
[5] = library stock concentration: 400 uM
[6] = library stock concentration: 80 uM

Cc1nc(Nc2ncc(C(=O)Nc3c(C)cccc3Cl)s2)cc(N2CCN(CCO)CC2)n1
scaled lipid accumulation score [1]: active: 1.18
scaled lipid accumulation score [2]: active: 1.48

Cn1cc(C(=O)OCC2CCN(CCNS(C)(=O)=O)CC2)c2ccccc21
scaled lipid accumulation score [2]: active: 0.925

CC(=O)O[C@H]1C[C@@H]2CC[C@@H]3[C@H](CC[C@@]4(C)[C@H]3C[C@H]([N+]3(C)CCCCC3)[C@@H]4OC(C)=O)[C@@]2(C)C[C@@H]1N1CCCCC1
scaled lipid accumulation score [2]: inactive: ≤ 0

CC(=O)O[C@H]1C[C@@H]2CC[C@@H]3[C@H](CC[C@@]4(C)[C@H]3C[C@H]([N+]3(C)CCCCC3)[C@@H]4OC(C)=O)[C@@]2(C)C[C@@H]1N1CCCCC1 [Vecuronium Bromide]
scaled lipid accumulation score [3]: inactive: ≤ 0
scaled lipid accumulation score [2]: inactive: ≤ 0

CC1(C)C[C@@H]1C(=O)N/C(=C\CCCCSC[C@H](N)C(=O)O)C(=O)O [Cilastatin sodium]
scaled lipid accumulation score [2]: inactive: ≤ -0.001

CC1(C)C[C@@H]1C(=O)N/C(=C\CCCCSC[C@H](N)C(=O)O)C(=O)O
scaled lipid accumulation score [2]: inactive: ≤ 0

Cc1cc(Cn2cnc3c2C[C@@H](C(=O)O)N(C(=O)C(c2ccccc2)c2ccccc2)C3)ccc1N
scaled lipid accumulation score [2]: inactive: ≤ 0

CCCCCC(=O)O[C@]1(C(C)=O)CC[C@H]2[C@@H]3CCC4=CC(=O)CC[C@]4(C)[C@H]3CC[C@@]21C [Hydroxyprogesterone caproate]
scaled lipid accumulation score (library stock concentration: 4.7 mM): inactive: ≤ -0.001
scaled lipid accumulation score [2]: inactive: ≤ 0

Oc1cc2c(cc1O)CN(C(=S)NCCc1ccc(Cl)cc1)CCC2 [Capsazepine]
scaled lipid accumulation score [4]: inactive: 0.038
scaled lipid accumulation score [2]: inactive: 0.015 and inactive: ≤ 0

NS(=O)(=O)C#Cc1ccccc1 [Pifithrin-mu]
scaled lipid accumulation score [2]: active: 1.02

O=C(O)CCC(=O)O.O=C(O[C@H]1CN2CCC1CC2)N1CCc2ccccc2[C@@H]1c1ccccc1 [Solifenacin succinate]
scaled lipid accumulation score [2]: active: 1.3

CCCCCCC(=O)OC1CC(C)(C)NC(C)(C)C1 [TMPH hydrochloride]
scaled lipid accumulation score [2]: inactive: ≤ -0.055 and inactive: ≤ -0.001

CC[C@@H]1C(=O)N(C)c2cnc(Nc3ccc(C(=O)NC4CCN(C)CC4)cc3OC)nc2N1C1CCCC1
scaled lipid accumulation score [5]: active: 1.02

CN(C)Cc1cccc(N=C(c2ccccc2)c2c(O)[nH]c3cc(C(=O)N(C)C)ccc23)c1
scaled lipid accumulation score [6]: inactive: ≤ -0.009
scaled lipid accumulation score [5]: inactive: 0.07
scaled lipid accumulation score [1]: inactive: 0.08
scaled lipid accumulation score [3]: inactive: 0.325
scaled lipid accumulation score [2]: inactive: 0.535 and inactive: 0.688

NC[C@@H](O)c1ccc(O)c(O)c1 [L(-)-Norepinephrine bitartrate]
scaled lipid accumulation score [2]: inactive: ≤ 0

C[C@@H]1C[C@H]2[C@@H]3C[C@H](F)C4=CC(=O)C=C[C@]4(C)[C@@]3(Cl)[C@@H](O)C[C@]2(C)[C@H]1C(=O)COC(=O)C(C)(C)C [Clocortolone pivalate]
scaled lipid accumulation score: inactive: ≤ 0

Nc1nc(Cl)nc2c1ncn2[C@@H]1O[C@H](COP(=O)(O)OP(=O)(O)OP(=O)(O)O)[C@H](O)C1O (stereo not given in full) [2-Chloroadenosine triphosphate tetrasodium]
scaled lipid accumulation score [2]: inactive: 0.505

CC(C)(C)n1nc(-c2cccc3ccccc23)c2c(N)ncnc21 [1-Naphthyl PP1]
scaled lipid accumulation score [2]: inactive: 0.016

COc1ccc2c(c1)c(CC(=O)N1CCOCC1)c(C)n2C(=O)c1ccc(Cl)cc1
scaled lipid accumulation score [4]: inactive: ≤ -0.021
scaled lipid accumulation score [3]: inactive: ≤ 0
scaled lipid accumulation score [2]: inactive: ≤ 0 and inactive: ≤ -0.006

OC(c1cc(C(F)(F)F)nc2c(C(F)(F)F)cccc12)C1CCCCN1 (stereo not given) [Mefloquine hydrochloride]
scaled lipid accumulation score: inactive: ≤ 0
scaled lipid accumulation score [2]: inactive: 0.12

OC(c1cc(C(F)(F)F)nc2c(C(F)(F)F)cccc12)C1CCCCN1 (stereo not given) [Mefloquine]
scaled lipid accumulation score (library stock concentration: 4.8 mM): inactive: 0.805
scaled lipid accumulation score [2]: inactive: 0.525

OC(c1cc(C(F)(F)F)nc2c(C(F)(F)F)cccc12)C1CCCCN1 (stereo not given) [Mefloquine HCl]
scaled lipid accumulation score [3]: inactive: 0.536
scaled lipid accumulation score [2]: inactive: ≤ -0.001

CC[C@H]1OC(=O)C[C@@H](O)[C@H](C)[C@@H](O[C@@H]2O[C@H](C)[C@@H](O)[C@H](N(C)C)[C@H]2O)[C@@H](CCN2C[C@H](C)C[C@H](C)C2)C[C@@H](C)C(=O)/C=C/C(C)=C/[C@@H]1CO[C@@H]1O[C@H](C)[C@@H](O)[C@@H](OC)[C@H]1OC [Tilmicosin]
scaled lipid accumulation score (library stock concentration: 2.3 mM): inactive: ≤ 0
scaled lipid accumulation score [3]: inactive: 0.171
scaled lipid accumulation score [2]: inactive: 0.847

O=C1Cc2c([nH]c3ccc(Br)cc23)-c2ccccc2N1 [Kenpaullone]
scaled lipid accumulation score [4]: inactive: ≤ 0
scaled lipid accumulation score [3]: inactive: ≤ 0
scaled lipid accumulation score [2]: inactive: ≤ -0.055 and inactive: 0.348

CCc1c(O)cc(O)c(C(=O)c2ccc(OCCN3CCOCC3)c(OC)c2)c1CC(=O)N(CCOC)CCOC
scaled lipid accumulation score [3]: inactive: 0.686
scaled lipid accumulation score [2]: inactive: 0.625

CNCCCC12CCC(c3ccccc31)c1ccccc12 [Maprotiline HCl]
scaled lipid accumulation score [3]: inactive: 0.678

CNCCCC12CCC(c3ccccc31)c1ccccc12 [Maprotilline HCl]
scaled lipid accumulation score [2]: active: 1.35

Cc1coc2c1C(=O)C(=O)c1c-2ccc2c1CCCC2(C)C [Tanshinone IIA]
scaled lipid accumulation score [3]: inactive: ≤ 0
scaled lipid accumulation score [2]: inactive: 0.377
scaled lipid accumulation score (library stock concentration: 17 mM): inactive: ≤ -0.021

Cc1coc2c1C(=O)C(=O)c1c-2ccc2c1CCCC2(C)C [Tanshinone iia]
scaled lipid accumulation score (library stock concentration: 6.8 mM): inactive: 0.251

CC(C)C[C@H](NC(=O)CNC(=O)c1cc(Cl)ccc1Cl)B(O)O
scaled lipid accumulation score [3]: inactive: 0.157
scaled lipid accumulation score [2]: inactive: 0.363

O=C(O[C@@H]1Cc2c(O)cc(O)cc2O[C@@H]1c1cc(O)c(O)c(O)c1)c1cc(O)c(O)c(O)c1 [Epigallocatechin gallate]
scaled lipid accumulation score [6]: inactive: ≤ 0
scaled lipid accumulation score [5]: inactive: ≤ 0
scaled lipid accumulation score [1]: inactive: ≤ 0
scaled lipid accumulation score [2]: inactive: ≤ 0

O=C(O[C@@H]1Cc2c(O)cc(O)cc2O[C@@H]1c1cc(O)c(O)c(O)c1)c1cc(O)c(O)c(O)c1 [(-)-Epigallocatechin Gallate]
scaled lipid accumulation score [4]: inactive: ≤ 0

CCOC(=O)[C@H](CCc1ccccc1)N[C@@H](C)C(=O)N1[C@H](C(=O)O)C[C@H]2CCCC[C@@H]21 [Trandolapril]
scaled lipid accumulation score [2]: inactive: 0.059 and inactive: 0.177

CC(C)(CO)[C@@H](O)C(=O)NCCCO [Dexpanthenol]
scaled lipid accumulation score (library stock concentration: 9.7 mM): inactive: 0.02

N#C[C@@H]1CCCN1C(=O)CNC12CC3CC(CC(O)(C3)C1)C2 [Vildagliptin (LAF-237)]
scaled lipid accumulation score [3]: inactive: ≤ 0
scaled lipid accumulation score [2]: inactive: ≤ 0

CCN(CC)CCN(Cc1ccc(-c2ccc(C(F)(F)F)cc2)cc1)C(=O)Cn1c(SCc2ccc(F)cc2)nc(=O)c2c1CCC2
scaled lipid accumulation score [3]: inactive: 0.746
scaled lipid accumulation score [2]: inactive: 0.058

CN1CCN(C2=Nc3cc(Cl)ccc3Nc3ccccc32)CC1 [Clozapine]
scaled lipid accumulation score [2]: active: 0.977

CCOc1ccn(-c2ccc(F)cc2)c(=O)c1C(=O)Nc1ccc(Oc2ccnc(N)c2Cl)c(F)c1
scaled lipid accumulation score [6]: inactive: ≤ -0.009
scaled lipid accumulation score [5]: inactive: ≤ -0.009
scaled lipid accumulation score [1]: inactive: 0.004
scaled lipid accumulation score [3]: inactive: ≤ 0
scaled lipid accumulation score [2]: inactive: ≤ 0 and inactive: ≤ -0.009

CCn1cc(-c2ccnc3[nH]c(-c4cccc(CN(C)C)c4)cc23)c(-c2ccc(NC(=O)N(C)C)cc2)n1
scaled lipid accumulation score [6]: inactive: ≤ 0
scaled lipid accumulation score [5]: inactive: ≤ 0
scaled lipid accumulation score [1]: inactive: 0.222

[Cl-].[Li+] [Lithium Chloride]
scaled lipid accumulation score [2]: inactive: ≤ -0.07

CN1C(=O)CC(C)(c2ccccc2)C1=O (stereo not given)
scaled lipid accumulation score [2]: inactive: ≤ 0

CCN(CC)CCNC(=O)c1ccc(NC(C)=O)cc1 [N-Acetylprocainamide hydrochloride]
scaled lipid accumulation score [2]: inactive: ≤ 0

CCN(CC)CCNC(=O)c1ccc(NC(C)=O)cc1 [Acecainide hydrochloride]
scaled lipid accumulation score (library stock concentration: 6.4 mM): inactive: ≤ 0

CCCCCCN(CCCCCC)C(=O)Cc1c(-c2ccc(F)cc2)[nH]c2ccccc12
scaled lipid accumulation score [2]: inactive: 0.028

CCCCCCN(CCCCCC)C(=O)Cc1c(-c2ccc(F)cc2)[nH]c2ccccc12 [N,N-Dihexyl-2-(4-fluorophenyl)indole-3-acetamide]
scaled lipid accumulation score [2]: inactive: 0.151

O=S(=O)(NCCNCC=Cc1ccc(Br)cc1)c1cccc2cnccc12
scaled lipid accumulation score [3]: inactive: 0.01
scaled lipid accumulation score [2]: inactive: 0.542

OC1CCC(Nc2nc(-c3ccccc3)nc3[nH]ccc23)CC1 (stereo not given)
scaled lipid accumulation score [2]: inactive: ≤ -0.001

CC(=O)NNC(=O)N1Cc2ccccc2Oc2ccc(Cl)cc21
scaled lipid accumulation score [2]: inactive: ≤ 0 and inactive: ≤ -0.006

CNC[C@H](O)c1cccc(O)c1 [Phenylephrine HCl]
scaled lipid accumulation score [3]: inactive: 0.013
scaled lipid accumulation score [2]: inactive: ≤ 0

CNC[C@H](O)c1cccc(O)c1 [Phenylephrine hydrochloride]
scaled lipid accumulation score [2]: inactive: 0.059 and inactive: 0.138

OCc1ccc(-c2ccc(-c3ccc(CO)s3)o2)s1
scaled lipid accumulation score [3]: inactive: 0.238
scaled lipid accumulation score [2]: inactive: 0.515

CCOC(=O)Nc1ccc2c(c1)N(C(=O)CCN1CCOCC1)c1ccccc1S2 [Moricizine hydrochloride]
scaled lipid accumulation score: inactive: 0.015

O=c1c(-c2ccc(O)cc2)coc2cc(O)cc(O)c12 [Genistein]
scaled lipid accumulation score [4]: inactive: 0.008
scaled lipid accumulation score [3]: inactive: ≤ 0
scaled lipid accumulation score [2]: inactive: ≤ 0 and inactive: ≤ -0.07 and inactive: ≤ -0.006
scaled lipid accumulation score (library stock concentration: 19.2 mM): inactive: 0.047

Cc1cc(N2CCOCC2)ccc1Nc1nc(NC2CCCCC2)c2[nH]cnc2n1
scaled lipid accumulation score [3]: inactive: 0.091
scaled lipid accumulation score [2]: inactive: ≤ 0

Nc1c2c(nc3c1CCC3)CCCC2
scaled lipid accumulation score [2]: inactive: ≤ 0

CNCC[C@H](Oc1cccc2ccccc12)c1cccs1 [Duloxetine]
scaled lipid accumulation score [2]: active: 1.39

O=C(O)c1ccc(Nc2ncc3c(n2)-c2ccc(Cl)cc2C(c2c(F)cccc2F)=NC3)cc1
scaled lipid accumulation score [6]: inactive: ≤ 0
scaled lipid accumulation score [5]: inactive: ≤ 0
scaled lipid accumulation score [1]: inactive: ≤ 0
scaled lipid accumulation score [3]: inactive: ≤ 0
scaled lipid accumulation score [2]: inactive: ≤ 0
